Test results reported in PMC7104723 (Cell Research, 2020).

System: Vero-E6, Huh-7, LLC-MK2 and RD cells
Settings: various target cells (Vero-E6, Huh-7, LLC-MK2, RD); 2 days, 37 °C; CCK-8, absorbance 450 nm; 5 μM = highest concentration tested

`CC[C@H](C)[C@H](NC(=O)[C@H](C)NC(=O)[C@H](CCC(=O)O)NC(=O)[C@H](CCC(=O)O)NC(=O)[C@H](CC(C)C)NC(=O)[C@H](CCCCN)NC(=O)[C@H](CCCCN)NC(=O)[C@H](CCSC)NC(=O)[C@H](CCC(=O)O)NC(=O)[C@H](Cc1ccc(O)cc1)NC(=O)[C@H](CCC(=O)O)NC(=O)[C@H](CC(C)C)NC(=O)[C@H](CC(=O)O)NC(=O)[C@H](CC(C)C)NC(=O)[C@H](Cc1ccccc1)NC(=O)[C@@H](NC(=O)[C@@H](NC(=O)[C@H](CC(N)=O)NC(=O)[C@@H](NC(=O)[C@H](CCC(N)=O)NC(=O)[C@H](CC(=O)O)NC(=O)[C@H](CC(C)C)NC(=O)[C@@H](N)CO)[C@@H](C)CC)C(C)C)[C@@H](C)O)C(=O)N[C@@H](CCCCN)C(=O)N[C@@H](CCCCN)C(=O)N[C@@H](CC(C)C)C(=O)N[C@@H](CCC(=O)O)C(=O)N[C@@H](CCC(=O)O)C(=O)N[C@@H](CO)C(=O)N[C@@H](Cc1ccc(O)cc1)C(=O)N[C@H](C(=O)N[C@@H](CC(=O)O)C(=O)N[C@@H](CC(C)C)C(=O)N[C@@H](CCCCN)C(=O)N[C@@H](CCC(=O)O)C(=O)N[C@@H](CC(C)C)C(=O)NCC(=O)N[C@@H](CO)C(=O)NCC(=O)N[C@@H](CO)C(=O)NCC(=O)NCCOCCOCCOCCOCCC(=O)N[C@@H](CSCC(=O)O[C@H]1CC[C@@]2(C)C(=CC[C@H]3[C@@H]4CC[C@H]([C@H](C)CCCC(C)C)[C@@]4(C)CC[C@@H]32)C1)C(N)=O)[C@@H](C)CC` [EK1C4] was tested, and the “Half cytotoxic concentration (CC50)” value was over 5 µM.
